Measured values reported in PubChem BioAssay AID1347043 (National Center for Advancing Translational Sciences (NCATS), 2019).
Screen size: about 76,000 compounds; about 1,900 (2.5%) were called active. The shares of active, inactive and inconclusive entries below differ from those in the screen. The call rests on the fitted dose curve; in most records, active means well fitted inhibition curve with a large enough effect; inconclusive means small, poorly fitted or top-dose-only effect; inactive means flat fitted curve, though single readings scatter. A potency beside an inconclusive call is a rough fit, not a confirmed value.

Target: Luciferin 4-monooxygenase (Photinus pyralis) (UniProt P08659)
Assay: Firefly luciferase inhibition profiling of diverse chemical library using quantitative high-throughput screening; further: nearly all actives have a fitted effect of over 65% in size
Conditions: purified P. pyralis luciferase, luminescence, biochemical; activity change, negative = inhibition: at 115 µM (top of the series) unless noted
Summary of the method: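 Purified P. pyralis luciferase (10nM final) in 50mM Tris acetate pH 7.5, 10mM Mg acetate, 0.01% Tween-20, 0.05% BSA with 10uM D-luciferin and 10uM ATP. Compounds titrated qHTS. Luminescence imaged on CCD.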
On the % scale 0 is the no-effect control and ±100 the full control effect; potency means the concentration at half of the fitted maximal effect; tags describe the fitted curve by direction and shape.

Sequence of UniProt P08659 (P08659 whole entry, looked up): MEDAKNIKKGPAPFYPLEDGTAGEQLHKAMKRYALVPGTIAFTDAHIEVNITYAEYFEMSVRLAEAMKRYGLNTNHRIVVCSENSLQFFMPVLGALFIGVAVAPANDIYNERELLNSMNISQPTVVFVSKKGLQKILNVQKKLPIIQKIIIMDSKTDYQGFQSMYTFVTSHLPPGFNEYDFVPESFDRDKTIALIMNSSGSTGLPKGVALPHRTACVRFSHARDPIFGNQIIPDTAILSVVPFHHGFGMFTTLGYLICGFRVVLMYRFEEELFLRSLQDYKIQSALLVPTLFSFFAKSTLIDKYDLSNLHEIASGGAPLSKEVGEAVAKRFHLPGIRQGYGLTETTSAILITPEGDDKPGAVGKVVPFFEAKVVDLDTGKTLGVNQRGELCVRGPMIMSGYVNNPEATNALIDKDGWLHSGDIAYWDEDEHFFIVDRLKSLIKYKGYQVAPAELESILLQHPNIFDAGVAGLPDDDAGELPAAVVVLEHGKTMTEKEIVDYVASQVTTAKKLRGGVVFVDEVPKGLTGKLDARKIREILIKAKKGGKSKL

| Structure (SMILES) | activity change, negative = inhibition | Potency |
| --- | --- | --- |
| CC(=O)Nc1ccc(CN[C@@H]2CO[C@H](CNC(=O)NC(C)C)[C@H]2O)cc1 | inactive: 13.1% [at 172 µM] |  |
| Cc1cc(CN(C)c2ccc(-c3nc(COc4ccccc4)no3)cn2)on1 |  | inconclusive: 50.1 µM [inhibitor, partial curve] |
| O=C(O)c1cccc(C2CCCN(C(=O)c3ccc4c(c3)ncn4CCO)C2)c1 (centres undefined) |  | inconclusive: 70.8 µM [inhibitor, partial curve, poor fit] |
| O=C1c2cnc(-c3ccc(CO)cc3)nc2OCCN1Cc1ccc(F)cc1F |  | inconclusive: 50.1 µM [inhibitor, partial curve] |
| COc1ccc(-c2cc3c(ccn3C)c(C(=O)NCc3cccnc3)n2)cc1 |  | inconclusive: 70.8 µM [inhibitor, partial curve] |
| O=C(c1ccc2c(c1)OCCO2)N1CCc2[nH]nc(-c3ccccc3F)c2C1 |  | inconclusive: 50.1 µM [inhibitor, partial curve] |
| COc1ccc(-c2cn3c(n2)CO[C@@H](CNCc2ccc(OC(F)(F)F)cc2)C3)cc1 |  | inconclusive: 56.2 µM [inhibitor, full curve, poor fit] |
| c1cc(-c2cc(-c3ccncc3)c3cncn3c2)c2[nH]ccc2c1 |  | inconclusive: 63.1 µM [inhibitor, full curve] |
| COCCOC1CCOC2(CCN(C(=O)NCCc3ccccc3)CC2)C1 (centres undefined) |  | inconclusive: 44.7 µM [inhibitor, partial curve] |
| Cc1cccc(-c2noc([C@@H]3C[C@@H](O)CN3Cc3ccc(Cl)cc3)n2)c1 |  | active: 63.1 µM |
| COc1ccc(C(=O)N2CCCCC2c2nc(CCOc3cccc(C)c3)no2)cn1 (centres undefined) | inactive: 1.67% |  |
| CCc1ccc(NC(=O)N2CCc3[nH]c4ccc(F)cc4c3C2)cc1 |  | inconclusive: 39.8 µM [inhibitor, partial curve] |
| O=C(Nc1cccnc1)c1ccc2c(c1)OCCN(c1ccccc1)C2 |  | inconclusive: 70.8 µM [inhibitor, partial curve] |
| Cc1cc(C)cc(N2CCC(N3CCC(CCC(=O)NC4CC4)CC3)CC2)c1 | inactive: -4.8% |  |
| COc1ccccc1NC(=O)Nc1cccc(-c2nnc3n2CCCC3)c1 |  | inconclusive: 44.7 µM [inhibitor, partial curve, poor fit] |
| O=[S+]([O-])(c1cccc(C(F)(F)F)c1)N1CCc2nc(-c3ccc(Cl)cc3)nc(-c3ccccc3)c2C1 |  | inconclusive: 35.5 µM [inhibitor, partial curve, poor fit] |
| Cc1nn(C)cc1CN(C)C(=O)c1cc2cn(C(C)C)cc2s1 | inactive: -1.76% |  |
| COc1ccc(-c2cc3nc4c(c(=O)n3[nH]2)CN(S(=O)(=O)c2cccs2)CC4)cc1 |  | inconclusive: 31.6 µM [inhibitor, partial curve] |
| CCOC(=O)C1(Cc2cccc(OC)c2)CCNCC1 |  | inconclusive: 50.1 µM [inhibitor, partial curve] |
| COc1ccc(Cl)cc1C(=O)N1CCC(Oc2nccnc2N(C)C)C1 (centres undefined) |  | inconclusive: 44.7 µM [inhibitor, partial curve] |
| O=C(Nc1cccnc1)c1nc2c(o1)CCN(Cc1cccs1)CC2 |  | inconclusive: 20 µM [inhibitor, full curve, poor fit] |
| CN1CCN(c2cc(=O)c3ccnc(Nc4ccccn4)c3o2)CC1 | inactive: -3.21% [at 172 µM] |  |
| COc1ccc(CNC(=O)C[C@@H]2CCNC[C@@H]2Cc2cc(-c3ccc(C(C)(C)C)cc3)on2)cc1OC | inactive: 0.217% |  |

| Structure (SMILES) | activity change, negative = inhibition | Potency |
| --- | --- | --- |
| COc1ccc2ccc(OCc3nc(C(=O)N4CC(N5CCCCC5)C4)co3)cc2c1 |  | inconclusive: 50.1 µM [inhibitor, partial curve] |
| Cc1cnc(NC(=O)c2ccc3c(c2)OCCN(C2CCC2)C3)s1 |  | inconclusive: 44.7 µM [inhibitor, partial curve] |
| COc1ccc(C(=O)N2CCC3(CC2)OC(=O)N(Cc2csc(C)n2)C3(C)c2ccccc2)cn1 (centres undefined) | inactive: -0.0106% |  |
| O=C(O)CCn1ncc2cc(OCc3ccc(-c4ccncc4)cc3)ccc21 |  | inconclusive: 112 µM [inhibitor, partial curve] |
| CN(Cc1cccnc1)C1CN(C(=O)C2CC2)C1 |  | inconclusive: 50.1 µM [inhibitor, partial curve] |
| O=C(NCCc1ccccc1)Nc1cccc(-c2ccc(N3CCCCC3)nn2)c1 |  | active: 0.251 µM |
| Cc1ccccc1OCc1nc(C2CN(C(=O)c3cc(F)ccc3F)C2)no1 | inactive: -3.4% |  |
| C[S+](=O)([O-])c1ccc(-c2cc3c(cn2)CN(Cc2ccccc2)CCN3)cc1 |  | inconclusive: 44.7 µM [inhibitor, full curve] |
| Cc1nnc(CN(C)c2ccc(-c3nc(-c4cccc(Cl)c4)no3)cn2)o1 |  | active: 1.12 µM |
| O=C(O)c1ccc(CN2C[C@H](O)C[C@H]2c2nc(-c3ccccc3)no2)cc1 |  | inconclusive: 50.1 µM [inhibitor, partial curve] |
| N#Cc1ccc(O[C@@H]2COCC[C@H]2NC(=O)CCCn2cccn2)cc1 | inactive: 0.744% |  |
| CN(C)CCN(C)c1ccc(-c2nc(-c3ccccc3F)no2)cn1 |  | active: 15.8 µM |
| CN1CCN(c2ccc(-c3noc([C@@H]4CCCN4Cc4ccncc4)n3)cn2)CC1 |  | inconclusive: 79.4 µM [inhibitor, partial curve] |
| COc1ccc(C(=O)N[C@@H]2CCC[C@@H]2C(=O)NCCCc2ccccc2)cn1 | inactive: -0.835% |  |
| O=C(CN1CCN(C(=O)c2cc3c(s2)CN(C2CCCC2)C3)CC1)N1CCCC1 | inactive: 29.3% |  |
| CCc1noc([C@@H]2CC(F)(F)CN2C(=O)c2cn(C)cn2)n1 |  | inconclusive: 56.2 µM [inhibitor, partial curve] |
| COc1ccc(C(=O)N[C@H]2C[C@@H](c3nc(-c4ccc(OC)cc4)no3)N(C)C2)cc1 |  | inconclusive: 100 µM [inhibitor, partial curve] |
| CN(c1ccccc1)c1ccc2nnc(-c3cc(C(=O)NCC4CCCO4)ccn3)n2n1 (centres undefined) | inactive: 11.4% [at 172 µM] |  |
| CN1CCCN(C(=O)c2cn3ccnc(-c4ccccc4)c3n2)CC1 | inactive: 5.82% |  |
| Cc1cc(C)cc(NC(=O)N2CCCC(Cn3c(C4CC4)nc4cccnc43)C2)c1 (centres undefined) | inactive: 4.88% |  |
| COCCN1CC(CO)C2(CCN(C(=O)COc3cccc(C)c3)CC2)C1 (centres undefined) | inactive: -3.07% |  |
| OC1(c2csc(CN3CCOCC3)n2)CCN(Cc2ccccc2C(F)(F)F)CC1 | inactive: -2.62% |  |
| COc1cccc(-c2cccc(C(=O)N3C[C@H](CO)C[C@H](CN(C)C)C3)c2)c1 | inactive: 5.71% |  |

| Structure (SMILES) | activity change, negative = inhibition | Potency |
| --- | --- | --- |
| N#Cc1ccccc1OCC1CN(Cc2cccc(C(F)(F)F)c2)C(=O)c2c(ccnc2-c2ccc(OCC(=O)O)cc2)O1 (centres undefined) |  | inconclusive: 50.1 µM [inhibitor, partial curve] |
| Cc1ccc(C2(O)CCN(C(=O)[C@@H](N)Cc3cnc[nH]3)CC2)nc1 | inactive: 0.88% |  |
| CCc1nc2nccc(-c3ccc4c(c3)OCCCO4)n2n1 |  | inconclusive: 44.7 µM [inhibitor, partial curve] |
| CC1=C[C@@H](CNc2ccccn2)[C@H](C(C)C)C[C@H]1Cc1nnc(-c2cncn2C)o1 | inactive: -4.53% [at 172 µM] |  |
| O=C(CCn1ccn2nc3c(c2c1=O)CCCC3)NCc1ccc2c(c1)OCO2 |  | inconclusive: 39.8 µM [inhibitor, partial curve] |
| Cc1ccc(-c2ccc3nnc(CNC(=O)Cc4cccc(Cl)c4)n3n2)cc1 |  | inconclusive: 89.1 µM [inhibitor, single point] |
| Clc1cc(NCCOc2ccccc2)n2nccc2n1 |  | inconclusive: 100 µM [inhibitor, partial curve] |
| Cc1cccnc1C(=O)N[C@@H]1CN(c2ncccn2)C[C@H]1CO | inactive: -4.45% |  |
| COCCNC(=O)c1ccc(-c2ccc(N3CCCCCC3)nc2)cc1 |  | inconclusive: 39.8 µM [inhibitor, partial curve] |
| O=C1[C@@H]2C[C@@H](CN2Cc2ccc(C(F)(F)F)cc2)Oc2ccccc2N1Cc1cccnc1 | inactive: -0.266% |  |
| O=C(NCc1cccc(Br)c1)c1noc(-c2ccc(F)cc2)n1 |  | inconclusive: 44.7 µM [inhibitor, partial curve, poor fit] |
| Cc1ccc2c(C(=O)Nc3ccc(Cl)nc3)cnn2c1 |  | inconclusive: 10 µM [inhibitor, full curve] |
| CCN1CCN(CCNC(=O)c2cccc3c2CCN3C(=O)Nc2ccc(C)cc2)CC1 |  | active: 2 µM |
| CCOC(=O)C1(Cc2ccccc2F)CCCN(C(=O)c2ccc3c(c2)OCCO3)C1 (centres undefined) |  | inconclusive: 44.7 µM [inhibitor, partial curve, poor fit] |
| c1ccc(-c2noc(-c3cncnc3Nc3ccc4c(c3)OCCO4)n2)cc1 |  | inconclusive: 50.1 µM [inhibitor, partial curve] |
| Cn1nc(C(=O)N2CCCN(c3cc(-c4ccccc4)[nH]n3)CC2)c2ccccc21 | inactive: -0.968% |  |
| O=C(CN1C(=O)CCC1=O)N1CCC(CCOc2ccccc2F)C1 (centres undefined) | inactive: -8.35% |  |
| CC(=O)NC[C@H]1O[C@H](Cc2cc(-c3ccc(F)cc3)on2)CC[C@@H]1O |  | inconclusive: 79.4 µM [inhibitor, partial curve] |
| Cc1ccc(NC(=O)CCNc2c(C)nc3cnccn23)c(F)c1 | inactive: -8.85% |  |
| Cc1ccc(NC(=O)C2CCN(C(=O)c3ncn4c3COC(c3ccc(F)cc3)C4)CC2)c(F)c1 (centres undefined) |  | active: 12.6 µM |
| O=C(Nc1cccc(C(F)(F)F)c1)c1nc2c(o1)CCN(Cc1cccs1)CC2 |  | active: 8.91 µM |
| CSc1ccc(NC2=N[C@H]3[C@@H](O)[C@H](O)C[C@H](C(=O)NCCN4CCOCC4)[C@H]3S2)cc1 |  | inconclusive: 39.8 µM [inhibitor, partial curve] |
| Cc1ccc(C(=O)CCc2nc(C3CC(=O)N(C4CCCCC4)C3)no2)cc1 (centres undefined) | inactive: -9.14% |  |
